Hit rate of the full screen: of about 3,200 compounds, about 300 (9.4%) showed activity. The entries are a selection whose mix differs from that of the whole data set.
Test system: A673/TR/shEF
Assay: cell viability (LOESS-normalised, relative to median of negative controls) (log2 ratio); higher = more viable cells (less compound effect), active = hit call of the paper (over 3 MAD below the median)
Details: treatment time: 72 h
In short: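 A673/TR/shEF Ewing sarcoma cells (1,500 per well, 384-well plates) were grown with or without doxycycline to induce EWS-FLI1 shRNA knockdown, starting 24 h before compounds. Library compounds at two or more concentrations, with DMSO controls, were added for three days. Cell viability was read by CellTiter-Glo luminescence on an Envision reader, then LOESS-corrected per plate, divided by the median of negative controls and log2-transformed. Hits were wells at least three median absolute deviations from the median of all screened wells.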

[1] = 0.25 µM, library screen: screen1, EWS-FLI1 expression: high (no doxycycline)
[2] = 0.25 µM, library screen: screen1, EWS-FLI1 expression: low (doxycycline-induced shRNA knockdown)
[3] = 2.5 µM, library screen: screen1, EWS-FLI1 expression: high (no doxycycline)
[4] = 2.5 µM, library screen: screen1, EWS-FLI1 expression: low (doxycycline-induced shRNA knockdown)
[5] = 0.25 µM, library screen: screen2, EWS-FLI1 expression: high (no doxycycline)
[6] = 0.25 µM, library screen: screen2, EWS-FLI1 expression: low (doxycycline-induced shRNA knockdown)
[7] = 2.5 µM, library screen: screen2, EWS-FLI1 expression: high (no doxycycline)
[8] = 2.5 µM, library screen: screen2, EWS-FLI1 expression: low (doxycycline-induced shRNA knockdown)
[9] = 0.103 µM, library screen: screen3, EWS-FLI1 expression: high (no doxycycline)
[10] = 0.103 µM, library screen: screen3, EWS-FLI1 expression: low (doxycycline-induced shRNA knockdown)
[11] = 0.308 µM, library screen: screen3, EWS-FLI1 expression: high (no doxycycline)
[12] = 0.308 µM, library screen: screen3, EWS-FLI1 expression: low (doxycycline-induced shRNA knockdown)
[13] = 0.926 µM, library screen: screen3, EWS-FLI1 expression: high (no doxycycline)
[14] = 0.926 µM, library screen: screen3, EWS-FLI1 expression: low (doxycycline-induced shRNA knockdown)
[15] = 2.8 µM, library screen: screen3, EWS-FLI1 expression: high (no doxycycline)
[16] = 2.8 µM, library screen: screen3, EWS-FLI1 expression: low (doxycycline-induced shRNA knockdown)
[17] = 8.3 µM, library screen: screen3, EWS-FLI1 expression: high (no doxycycline)
[18] = 8.3 µM, library screen: screen3, EWS-FLI1 expression: low (doxycycline-induced shRNA knockdown)
[19] = 25 µM, library screen: screen3, EWS-FLI1 expression: high (no doxycycline)
[20] = 25 µM, library screen: screen3, EWS-FLI1 expression: low (doxycycline-induced shRNA knockdown)

Measured: cell viability (log2)

COc1ccc(-c2cc(=O)c3c(O)cc(O)c(-c4cc(-c5cc(=O)c6c(O)cc(O)cc6o5)ccc4OC)c3o2)cc1
inactive: [1] 0.0752 | [2] 0.0482 | [3] 0.146 | [4] 0.173

COc1ccc2c(=O)c(-c3cc4c(cc3OC)OCO4)coc2c1
inactive: [1] 0.0588 | [2] -0.078 | [3] 0.0766 | [4] 0.0171

COc1ccc2c(c1)OC1(O)COc3cc(OC)c(OC)cc3C1=C2 (stereo unspecified)
inactive: [1] 0.0744 | [2] -0.083 | [3] 0.152 | [4] 0.0705

C=Cc1c(C)c2cc3[nH]c(cc4nc(cc5nc(cc1[nH]2)C(C)=C5CCC(=O)O)C(CCC(=O)O)=C4C)c(C)c3C=C
inactive: [1] 0.241 | [2] 0.181 | [5] 0.253 | [6] 0.0373 | [3] 0.249 | [4] 0.148 | [7] 0.218 | [8] 0.0628

COC(=O)C1=C(C)NC(C)=C(C(=O)OCCN2CCN(C(c3ccccc3)c3ccccc3)CC2)C1c1cccc([N+](=O)[O-])c1 (stereo unspecified)
inactive: [9] 0.0343 | [10] 0.0779 | [11] 0.0955 | [12] 0.0663 | [13] 0.0726 | [14] 0.0664 | [15] 0.0776 | [16] 0.076 | [17] 0.0995 | [18] 0.0224 | [19] 0.0177 | [20] 0.00217

CN1CCc2cc(O)c(O)cc2C(c2ccccc2)C1 (stereo unspecified)
inactive: [5] 0.175 | [6] 0.093 | [7] 0.236 | [8] 0.101

CCCCCCc1ccc(O)cc1O.Nc1c2ccccc2nc2ccccc12
inactive: [1] 0.0435 | [2] -0.00183 | [3] -0.0147 | [4] -0.0672

CCCCOCCOC(=O)CCCOc1ccc(Cl)cc1Cl
inactive: [1] 0.0256 | [2] 0.038 | [3] 0.0946 | [4] 0.127

O=C1[C@H](Cc2ccc(O)cc2)N2C(=O)CCN(C(=O)NCc3ccccc3)[C@H]2CN1Cc1cccc2ccccc12
inactive: [9] -0.0101 | [10] 0.068 | [11] 0.0453 | [12] 0.0327 | [13] 0.0157 | [14] 0.0736 | [15] 0.0365 | [16] 0.0441 | [17] -0.0756 | [18] -0.205
active: [19] -1.07 | [20] -1.18

O=C(O)c1cccnc1Nc1cccc(C(F)(F)F)c1
inactive: [1] 0.0115 | [2] -0.00562 | [5] 0.155 | [6] 0.165 | [3] 0.168 | [4] 0.0617 | [7] 0.0841 | [8] 0.119

OC1C=CC(Br)C(O)C1O (stereo unspecified)
inactive: [5] 0.12 | [6] 0.141 | [7] 0.0654 | [8] 0.0803

CC(=O)Oc1ccc2c(c1)CC[C@@H]1[C@@H]2CC[C@]2(C)[C@@H](O)CC[C@@H]12
inactive: [1] 0.103 | [2] -0.00729 | [3] 0.0771 | [4] 0.0723

Cc1oncc1C(=O)Nc1ccc(C(F)(F)F)cc1
inactive: 0.025 µM, library screen: screen2, EWS-FLI1 expression: high (no doxycycline) 0.158 | 0.025 µM, library screen: screen2, EWS-FLI1 expression: low (doxycycline-induced shRNA knockdown) 0.127 | [9] 0.0152 | [10] 0.0531 | [1] 0.137 | [2] 0.0208 | [5] 0.12 | [6] 0.0726 | [11] 0.00609 | [12] 0.148 | [13] 0.0713 | [14] 0.0421 | [3] 0.106 | [4] 0.000838 | [7] 0.0518 | [8] 0.0106 | [15] 0.0408 | [16] 0.0338 | [17] 0.03 | [18] 0.0408 | 25 µM, library screen: screen2, EWS-FLI1 expression: high (no doxycycline) 0.0146 | 25 µM, library screen: screen2, EWS-FLI1 expression: low (doxycycline-induced shRNA knockdown) 0.0233 | [19] -0.00948 | [20] 0.0523

COc1ccc(C(Cl)=C(c2ccc(OC)cc2)c2ccc(OC)cc2)cc1
inactive: [1] 0.0809 | [2] 0.0758 | [3] 0.133 | [4] 0.183

CCOC(=O)[C@H](CCc1ccccc1)N[C@@H](C)C(=O)N1Cc2ccccc2C[C@H]1C(=O)O
inactive: [1] 0.0721 | [2] -0.0102 | [3] 0.124 | [4] 0.056

CC(CCc1ccccc1)NCC(O)c1ccc(O)c(C(N)=O)c1 (stereo unspecified)
inactive: [1] 0.117 | [2] 0.115 | [5] 0.116 | [6] 0.0924 | [3] 0.16 | [4] 0.0628 | [7] 0.126 | [8] 0.159

Cc1cc(O)c(C=O)c2c1C(=O)Oc1c(C)c(O)c3c(c1O2)C(O)OC3=O (stereo unspecified)
inactive: [1] 0.122 | [2] 0.106 | [3] 0.124 | [4] 0.0298

CN1C(C)(C)CCCC1(C)C
inactive: [1] 0.119 | [2] 0.116 | [5] 0.0924 | [6] 0.101 | [3] 0.0982 | [4] 0.0107 | [7] 0.129 | [8] 0.0765

Cc1onc(-c2c(Cl)cccc2Cl)c1C(=O)N[C@@H]1C(=O)N2[C@@H]1SC(C)(C)[C@@H]2C(=O)O
inactive: [1] 0.162 | [2] 0.13 | [3] 0.181 | [4] 0.179

CCCCCC[C@@H]([C@@H](C)O)n1cnc2c(N)ncnc21
inactive: [5] 0.208 | [6] 0.0178 | [7] 0.104 | [8] -0.0266

CC[N+](C)(C)Cc1ccccc1Br
inactive: [1] 0.0645 | [2] 0.0676 | [5] 0.15 | [6] 0.144 | [3] 0.126 | [4] -0.0279 | [7] 0.176 | [8] 0.0674

C[N+](C)(C)CCCCCC[N+](C)(C)C
inactive: [1] 0.107 | [2] 0.101 | [5] 0.128 | [6] 0.0242 | [3] 0.0541 | [4] 0.0148 | [7] 0.13 | [8] 0.0584

C[C@H](N)[C@H](O)c1cccc(O)c1
inactive: [1] 0.231 | [2] 0.24 | [3] 0.198 | [4] 0.252

CCN(CC)CCOC(=O)C(Cc1cccc2ccccc12)CC1CCCO1 (stereo unspecified)
inactive: [1] 0.0771 | [2] 0.121 | [3] 0.124 | [4] 0.131

Cc1ccc2nc(NC3=NC(CC(=O)O)C(=O)N3)nc(C)c2c1 (stereo unspecified)
inactive: [1] 0.016 | [2] -0.0194 | [3] 0.0679 | [4] -0.193

Cc1nc2sccn2c(=O)c1CCN1CCC(=C(c2ccccc2)c2ccc(F)cc2)CC1
inactive: [5] 0.158 | [6] 0.0717 | [7] 0.0856 | [8] 0.0996

COC(=O)C1=C(C)N=c2s/c(=C/c3ccc(OC)cc3OC)c(=O)n2C1c1cccs1 (stereo unspecified)
inactive: [1] 0.0522 | [2] 0.13 | [3] 0.0666 | [4] 0.065

NC(=NCCCCCCN=C(N)/N=C(\N)Nc1ccc(Cl)cc1)/N=C(\N)Nc1ccc(Cl)cc1
inactive: [1] 0.0882 | [2] 0.139 | [3] 0.128 | [4] 0.121

COc1c(-c2ccccc2)oc2c(ccc3occc32)c1=O
inactive: [1] 0.149 | [2] -0.022 | [3] 0.148 | [4] -0.0254

Cc1ccccc1OCC(O)CO (stereo unspecified)
inactive: [1] 0.0791 | [2] -0.0304 | [3] 0.14 | [4] -0.0183

NC(N)=NC(=O)c1nc(Cl)c(N2CCCCCC2)nc1N
inactive: [1] 0.112 | [2] 0.0462 | [5] 0.116 | [6] 0.137 | [3] 0.118 | [4] 0.0338 | [7] 0.142 | [8] 0.0733

O=C1CN(/N=C/c2ccc([N+](=O)[O-])o2)C(=O)N1
inactive: [1] 0.0668 | [2] -0.0411 | [3] 0.18 | [4] 0.0382

CS(=O)(=O)c1ccc(-c2cc(Br)sc2-c2ccc(F)cc2)cc1
inactive: [5] 0.22 | [6] 0.0867 | [7] 0.138 | [8] 0.138

COc1ccc(CN2CCN(Cc3ccc4ccccc4c3)CC2)cc1OC
inactive: [1] 0.139 | [2] 0.112 | [3] 0.0401 | [4] 0.187

CC1=C(CC(=O)O)c2cc(F)ccc2/C1=C\c1ccc(S(C)(=O)=O)cc1
inactive: [5] 0.0875 | [6] 0.0432 | [7] 0.105 | [8] 0.0598

CC(C)CC1NC(=O)C(Cc2ccccc2)NC(=O)C(CCN)NC(=O)C(NC(=O)C(CCN)NC(=O)C(CCO)NC(=O)C(CCN)NC=O)CCNC(=O)C(CCO)NC(=O)C(CCN)NC(=O)C(CCN)NC1=O.COc1cc(Cc2cnc(N)nc2N)cc(OC)c1OC (stereo unspecified)
inactive: [1] 0.0686 | [2] 0.0873 | [3] 0.182 | [4] 0.054

COc1c/c(=C2\C=c3ccccc3=N2)[nH]/c1=C\c1[nH]c(C)cc1C
active: [11] -0.218 | [12] -0.107 | [13] -0.709 | [14] -0.236 | [15] -2.64 | [16] -1.14 | [17] -3.15 | [18] -1.55 | [19] -4.31 | [20] -2.5

CC(C)CN(C)c1nc(N)c(C(=O)N=C(N)N)nc1Cl
inactive: [5] 0.17 | [6] 0.0963 | [7] 0.0788 | [8] 0.132

NS(=O)(=O)c1cc2c(cc1Cl)NC(CSCc1ccccc1)=NS2(=O)=O
inactive: [1] 0.103 | [2] 0.0722 | [3] 0.0775 | [4] 0.161
